Test results published in a collection of fitness landscapes (doi:10.1126/science.1257360).
Some of the results follow.

B1: PhoQ; a variant is named by its letters at X, in order, P23837 (parent)
chain: MKKLLRLFFPLSLRVRFLLATAAVVLVLSLAYGMVALIGYSVSFDKTTFRLLRGESNLFYTLAKWENNKLHVELPENIDKQSPTMTLIYDENGQLLWAQRDVPWLMKMIQPDWLKSNGFHEIEADVNDTSLLLSGDHSIQQQLQEVREDDDDAEMTHSVAVNVYPATSRMPKLTIVVVDTIPVELKSSYMVWSWFIYVLSANLLLVIPLLWVAAWWSLRPIEALAKEVRELEEHNRELLNPATTRELTSLVRNLNRLLKSERERYDKYRTTLTDLTHSLKTPLXXLQXXLRSLRSEKMSVSDAEPVMLEQISRISQQIGYYLHRASMRGGTLLSRELHPVAPLLDNLTSALNKVYQRKGVNISLDISPEISFVGEQNDFVEVMGNVLDNACKYCLEFVEISARQTDEHLYIVVEDDGPGIPLSKREVIFDRGQRVDTLRPGQGVGLAVAREITEQYEGKIVAGESMLGGARMEVIFGRQHSAPKDE

Variants of: B1
Assay: enrichment ratio after two sorts for PhoP signalling (ratio (wild type AVST 3.29)); higher = more functional
Conditions: with PhoP (E. coli)

Variant | enrichment ratio
SLDI | ≤ 0.25
NQHE | ≤ 0.25
DTYN | ≤ 0.25
IAVQ | ≤ 0.25
TGVF | 1.12
WRYW | ≤ 0.25
AFSN | ≤ 0.25
ESCD | ≤ 0.25
SDWL | ≤ 0.25
AGLL | 14.6
ISPN | ≤ 0.25
SYFH | ≤ 0.25
CSVF | ≤ 0.25
PADG | ≤ 0.25
PANC | ≤ 0.25
QGNP | ≤ 0.25
NPSF | ≤ 0.25
TDVY | 1.47
HEQL | ≤ 0.25
RYWS | ≤ 0.25
GNVE | ≤ 0.25
KNNE | ≤ 0.25
TFWA | ≤ 0.25
IPRM | ≤ 0.25
LVAC | ≤ 0.25
MDSF | ≤ 0.25

Variant | enrichment ratio
VTCF | 0.49
GLYC | ≤ 0.25
RAPW | ≤ 0.25
MCGG | 6.24
WRRC | ≤ 0.25
MNHC | ≤ 0.25
KYFI | ≤ 0.25
NNYC | ≤ 0.25
ITKF | ≤ 0.25
SVDK | ≤ 0.25
TWEM | 6.35
KEFP | ≤ 0.25
YTDC | ≤ 0.25
LSWD | ≤ 0.25
RCIA | ≤ 0.25
QYTI | ≤ 0.25
NFRL | ≤ 0.25
WHHI | ≤ 0.25
AMCM | 2.64
TFQV | ≤ 0.25
FLMF | ≤ 0.25
VKMM | ≤ 0.25
TLCD | ≤ 0.25
AAHM | ≤ 0.25
LGHC | ≤ 0.25
MIPR | ≤ 0.25

Variant | enrichment ratio
TAYG | 6.62
FCTF | ≤ 0.25
KARM | ≤ 0.25
NHFS | ≤ 0.25
DEPT | ≤ 0.25
QQST | ≤ 0.25
KLAD | ≤ 0.25
RMFI | ≤ 0.25
YGRG | ≤ 0.25
WPQK | ≤ 0.25
PSGV | ≤ 0.25
DASH | ≤ 0.25
PEGV | ≤ 0.25
EIRG | ≤ 0.25
EDYA | ≤ 0.25
TYRC | ≤ 0.25
MPIG | ≤ 0.25
VMRQ | ≤ 0.25
YQQN | ≤ 0.25
LLPN | ≤ 0.25
PVAH | ≤ 0.25
DMGW | 5.27
CSWD | ≤ 0.25
VQSY | ≤ 0.25
ICTM | ≤ 0.25
QFGL | ≤ 0.25

Variant | enrichment ratio
QSFC | 2.23
WWFQ | ≤ 0.25
HQWH | ≤ 0.25
TKCL | 14.6
MLKP | ≤ 0.25
HGHA | ≤ 0.25
YEGM | ≤ 0.25
MPEP | ≤ 0.25
KCWH | ≤ 0.25
AWHP | ≤ 0.25
MNLV | 4.5
MTSQ | 1.32
IWNN | ≤ 0.25
SEWE | ≤ 0.25
FTWH | ≤ 0.25
NLYK | ≤ 0.25
DADQ | ≤ 0.25
SGQW | ≤ 0.25
SFDS | ≤ 0.25
HKDW | ≤ 0.25
FMPA | ≤ 0.25
DFQM | ≤ 0.25
DPDE | ≤ 0.25
NDAF | ≤ 0.25
AKAT | 3.68
LSHY | 0.255

Variant | enrichment ratio
MYTS | ≤ 0.25
DWLK | ≤ 0.25
TVVN | ≤ 0.25
GCPW | ≤ 0.25
HCEK | ≤ 0.25
ICKN | ≤ 0.25
QRSS | ≤ 0.25
THCI | 7.06
YSRD | ≤ 0.25
RAKQ | ≤ 0.25
DIFQ | ≤ 0.25
NHAP | ≤ 0.25
AGHF | ≤ 0.25
KILQ | ≤ 0.25
SDEV | ≤ 0.25
QDWF | ≤ 0.25
MARS | ≤ 0.25
DTRA | 2.13
NRDY | ≤ 0.25
DQED | ≤ 0.25
RNFV | ≤ 0.25
CTAT | ≤ 0.25
SVPF | ≤ 0.25
WGVA | ≤ 0.25
PAWS | ≤ 0.25
MAAY | ≤ 0.25

Variant | enrichment ratio
EHHA | ≤ 0.25
QRYR | ≤ 0.25
SSKM | ≤ 0.25
AANN | ≤ 0.25
EEIR | ≤ 0.25
NYTA | ≤ 0.25
SWFH | ≤ 0.25
YMTG | ≤ 0.25
AHFH | ≤ 0.25
HDNF | ≤ 0.25
LQQQ | ≤ 0.25
TKNI | 13.3
NTPT | ≤ 0.25
SILN | 8.2
KGGH | ≤ 0.25
NHPD | ≤ 0.25
YNCF | ≤ 0.25
THLQ | 5.68
LYRM | 0.329
TIKH | ≤ 0.25
QMYK | ≤ 0.25
RNNS | ≤ 0.25
QNTP | ≤ 0.25
